Experimental data as given in PubChem BioAssay AID1508642 (National Center for Advancing Translational Sciences (NCATS), 2021).
Out of some 43,000 compounds screened, about 200 (0.47%) were called active. Inconclusive results (about 12%) are left out. Calls come from the whole dose curve; as a rule, active = well fitted cell-killing curve with a large enough effect; inconclusive = small, poorly fitted or top-dose-only effect, or effect the other way; inactive = flat fitted curve, though single readings scatter. Some of the results follow.

Assay: Cell viability qHTS assay in S16 Pmp22-F2sN cells; note: nearly all actives have a fitted effect of over 65% in size
Details: S16 Pmp22-F2sN Schwann cells viability, CellTiter-Glo, 24 h; series mostly up to 57.5 µM; activity change, negative = cytotoxicity: at the top concentration
How it was run: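 Viability was measured by CellTiter-Glo luminescence (15 min, room temperature). This followed 24 h at 37 °C of compound exposure (23 nL pin transfer) in S16 Pmp22-F2sN Schwann cells, 500-1,000 per well.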
% is set by controls: 0 for no effect and ±100 for the full control effect.

Row | SMILES | activity change, negative = cytotoxicity
1 | COc1ccc(CCNC(=O)c2ccc3c(c2)CCN3S(C)(=O)=O)cc1OC | inactive: 5.67%
2 | NS(=O)(=O)c1ccc(CCNC(=O)C2CCN(c3ncnc4c3nc3n4CCCCC3)CC2)cc1 | inactive: -2.3%
3 | Cc1ccc(CNC(=O)CCc2cn(C)c3ccccc23)cc1 | inactive: -0.741%
4 | CCC(CC)C(=O)Nc1nnc(S(=O)(=O)N2CCCCCC2)s1 | inactive: 7.37%
5 | CCOc1ccc(NC(=O)c2oc3ccccc3c2NC(=O)COc2cccc(OC)c2)cc1 | inactive: 4.58%
6 | Cc1cccc(CN2C(=O)c3ccccc3Sc3ccc(C(=O)NCc4ccco4)cc32)c1 | inactive: -4.09%
7 | O=c1c2ccccc2nc(/C=C/c2cccc3ccccc23)n1-c1ccc(F)cc1F | inactive: -17.4%
8 | COc1ccccc1CNC(=O)C1CCN(c2nc3ccc(C)cc3[nH]2)CC1 | inactive: 6.48%
9 | COc1ccc(Cl)cc1-n1cc(-c2ccccc2)nc1SCC(=O)Nc1ccc(C)cc1 | inactive: 5.6%
10 | O=C(NC1CCCC1)c1ccc2c(=O)n(Cc3ccccc3)c(SCc3ccccc3F)nc2c1 | inactive: 5.06%
11 | COc1ccc(-c2cc(-c3ccc(C)cc3)nc3c2COc2ccccc2-3)cc1 | inactive: 22.2%
12 | CCC(Cn1nnc2ccccc2c1=O)NC(=O)Nc1ccccc1OC (stereo not drawn) | inactive: -4.13%
13 | Cc1ccc(S(=O)(=O)c2nc(-c3ccc(F)cc3)oc2SCC(=O)NC2CCCCC2)cc1 | inactive: 8.89%
14 | CCOc1ccc(CCNC(=O)c2cc3c(-c4ccccc4F)nn(C)c3s2)cc1 | inactive: 19.5%
15 | CCn1cc(CNC(=O)c2cc(-c3ccc(C)cc3)nc3ccc(Br)cc23)c(C)n1 | inactive: 6.22%
16 | COc1cccc(NC(=O)C2CCC(CNS(=O)(=O)c3ccc4c(c3)CCCC(=O)N4)CC2)c1 (stereo not drawn) | inactive: -11.1%
17 | Cc1ccccc1-c1nc2scc(CCNC(=O)c3ccco3)n2n1 | inactive: -15.6%
18 | COc1cccc(NC(=O)C2CCN(c3ccc(Sc4ccc(C)cc4)nn3)CC2)c1 | inactive: 7.26%
19 | CCS(=O)(=O)N1CCc2cc(C(=O)NCc3ccccc3OC)ccc21 | inactive: -3.09%
20 | CCOc1ccc(CCNC(=O)C2CCCN(S(=O)(=O)N(C)c3ccc(F)cc3)C2)cc1 (stereo not drawn) | inactive: -5.06%
21 | Cc1sc2ncn(CC(=O)N3CCN(c4ccccc4F)CC3)c(=O)c2c1S(=O)(=O)N1CCC(C)CC1 | inactive: -0.54%
22 | Cc1cccc(OCCSc2nnc(-c3cccs3)o2)c1 | inactive: 5%
23 | Cc1ccc2nc(/C(C#N)=C/c3ccccc3F)[nH]c2c1 | inactive: 18%
24 | Clc1ccccc1OCCSc1nnc(-c2cccs2)o1 | inactive: 1.23%
25 | O=C(CSc1nc(=O)n(Cc2ccco2)c2c1CCC2)NCc1ccccc1 | inactive: 6.01%
26 | CCc1ccc2oc(-c3ccc(C)c(NC(=O)/C=C/c4ccco4)c3)nc2c1 | inactive: 7.46%
27 | Cc1cc(OCC(=O)NCCc2nc3ccccc3[nH]2)cc(C)c1Cl | inactive: 11.8%
28 | COc1ccc(CCNC(=O)c2ccc3c(c2)sc2nc(-c4ccccc4)cn23)cc1OC | inactive: 3.03%
